Measured values: patent US5858678, “Apoptosis-regulating proteins” (St. Louis University, dated 1999)

Tests used:
[1] = target: human Bax (two-hybrid partner) (human, UniProt Q07812); experiment: yeast two-hybrid
[2] = target: yeast SNF1 protein bait (yeast, UniProt P06782); experiment: yeast two-hybrid in strain Y153, X-gal (W = White)
Protocol: To determine the specificity of the two hybrid interaction, the three clones, 22, 44 and 91, were tested against baits expressing several heterologous proteins (Table 1). Among the various heterologous protein baits used, the adenovirus E3 11.6 kD protein is of particular interest as that protein localizes on the nuclear envelope region and has an internal hydrophobic domain like the E1B 19 kD protein (Scaria et al., 1992).
B = Blue W = White [@]Interactions with all baits except the yeast SNF1 protein were carried out in yeast Strain GGY1::171. Interaction with SNF1 was carried out in yeast strain Y153. *Colonies which appeared on -his, -trp, -leu plates after 6–8 days. Results of X-gal staining are indicated as B, blue; W, white; or ND, not done. The heterologous baits pLAM5 (human lamin) and pAS-SNF1 (yeast SNF1) have been described (Bartel et al., 1993, Durfee et al., 1993). Baits pHIV-1 Rev, pHIV-1 Tat, pHIV-1 Nef and pHTLV-1 Rex expressing the various HIV or HTLV regulating proteins were constructed as described herein and obtained from Cleta D'Sa Eipper and T. Subramanian, St. Louis University Medical Center, St. Louis, MO.

[3] = target: GAL4 DNA binding domain alone (vectors pMA424 or pAS1) (yeast, UniProt P04386); experiment: yeast two-hybrid with the empty GAL4 DNA binding domain vectors

Measured: binding result

B1: Nip3 (19K-interacting protein 3), protein coded by cDNA clone 91, tagged with the GAL4 activation domain (other)
chain: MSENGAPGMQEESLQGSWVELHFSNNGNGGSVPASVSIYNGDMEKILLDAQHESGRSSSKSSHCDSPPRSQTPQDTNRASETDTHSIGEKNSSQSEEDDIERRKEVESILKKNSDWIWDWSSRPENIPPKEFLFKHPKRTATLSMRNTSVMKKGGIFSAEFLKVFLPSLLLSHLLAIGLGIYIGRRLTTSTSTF
no binding: all assays above
